Measurements as given in the supplement of paper PMC8728848.
The other results are listed elsewhere or left out.

What was measured:
Assay in all cases: glycan array binding signal (z-score within array); higher = stronger binding
Conditions in all cases: glycan notation: IUPAC condensed, linker removed
[1] = target: Gal(b1-4)GlcNAc(b1-3)Gal(b1-4)GlcNAc(b1-2)Man(a1-3)[Gal(b1-4)GlcNAc(b1-3)Gal(b1-4)GlcNAc(b1-2)Man(a1-6)]Man(b1-4)GlcNAc(b1-4)[Fuc(a1-6)]GlcNAc
How it was run: (§1)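 Glycan array data were curated from 3228 arrays in the Consortium for Functional Glycomics database and kept only where the protein sequence was available. Glycan names were converted to IUPAC-condensed notation, and columns mapping to the same glycan were averaged. The binding signal is a within-array Z-score, averaged across arrays of the same protein sequence at different concentrations or buffers and across linkers. Negative Z-scores can be read as non-binding.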

[2] = target: Gal(b1-4)GlcNAc(b1-3)Gal(b1-4)GlcNAc(b1-2)[Gal(b1-4)GlcNAc(b1-3)Gal(b1-4)GlcNAc(b1-6)]Man(a1-6)[Gal(b1-4)GlcNAc(b1-3)Gal(b1-4)GlcNAc(b1-2)Man(a1-3)]Man(b1-4)GlcNAc(b1-4)GlcNAc
How it was run: as §1

[3] = target: Gal(b1-4)GlcNAc(b1-3)Gal(b1-4)GlcNAc(b1-2)[Gal(b1-4)GlcNAc(b1-3)Gal(b1-4)GlcNAc(b1-6)]Man(a1-6)[Gal(b1-4)GlcNAc(b1-3)Gal(b1-4)GlcNAc(b1-2)Man(a1-3)]Man(b1-4)GlcNAc(b1-4)[Fuc(a1-6)]GlcNAc
How it was run: as §1

[4] = target: Gal(b1-4)GlcNAc(b1-3)Gal(b1-4)GlcNAc(b1-3)Gal(b1-4)GlcNAc
How it was run: as §1

[5] = target: Gal(b1-4)GlcNAc(b1-3)Gal(b1-4)GlcNAc(b1-3)Gal(b1-4)GlcNAc(b1-2)Man(a1-3)[Gal(b1-4)GlcNAc(b1-3)Gal(b1-4)GlcNAc(b1-3)Gal(b1-4)GlcNAc(b1-2)Man(a1-6)]Man(b1-4)GlcNAc(b1-4)GlcNAc
How it was run: as §1

[6] = target: Gal(b1-4)GlcNAc(b1-3)Gal(b1-4)GlcNAc(b1-3)Gal(b1-4)GlcNAc(b1-2)Man(a1-3)[Gal(b1-4)GlcNAc(b1-3)Gal(b1-4)GlcNAc(b1-3)Gal(b1-4)GlcNAc(b1-2)Man(a1-6)]Man(b1-4)GlcNAc(b1-4)[Fuc(a1-6)]GlcNAc
How it was run: as §1

[7] = target: Gal(b1-4)GlcNAc(b1-3)Gal(b1-4)GlcNAc(b1-3)Gal(b1-4)GlcNAc(b1-2)[Gal(b1-4)GlcNAc(b1-3)Gal(b1-4)GlcNAc(b1-3)Gal(b1-4)GlcNAc(b1-6)]Man(a1-6)[Gal(b1-4)GlcNAc(b1-3)Gal(b1-4)GlcNAc(b1-3)Gal(b1-4)GlcNAc(b1-2)Man(a1-3)]Man(b1-4)GlcNAc(b1-4)[Fuc(a1-6)]GlcNAc
How it was run: as §1

[8] = target: Gal(b1-4)GlcNAc(b1-3)Gal(b1-4)GlcNAc(b1-3)Gal(b1-4)GlcNAc(b1-3)Gal(b1-4)GlcNAc(b1-2)Man(a1-3)[Gal(b1-4)GlcNAc(b1-3)Gal(b1-4)GlcNAc(b1-3)Gal(b1-4)GlcNAc(b1-3)Gal(b1-4)GlcNAc(b1-2)Man(a1-6)]Man(b1-4)GlcNAc(b1-4)GlcNAc
How it was run: as §1

[9] = target: Gal(b1-4)GlcNAc(b1-3)Gal(b1-4)GlcNAc(b1-3)Gal(b1-4)GlcNAc(b1-3)Gal(b1-4)GlcNAc(b1-2)Man(a1-3)[Gal(b1-4)GlcNAc(b1-3)Gal(b1-4)GlcNAc(b1-3)Gal(b1-4)GlcNAc(b1-3)Gal(b1-4)GlcNAc(b1-2)Man(a1-6)]Man(b1-4)GlcNAc(b1-4)[Fuc(a1-6)]GlcNAc
How it was run: as §1

[10] = target: Gal(b1-4)GlcNAc(b1-3)Gal(b1-4)GlcNAc(b1-3)Gal(b1-4)GlcNAc(b1-3)Gal(b1-4)GlcNAc(b1-2)[Gal(b1-4)GlcNAc(b1-3)Gal(b1-4)GlcNAc(b1-3)Gal(b1-4)GlcNAc(b1-3)Gal(b1-4)GlcNAc(b1-6)]Man(a1-6)[Gal(b1-4)GlcNAc(b1-3)Gal(b1-4)GlcNAc(b1-3)Gal(b1-4)GlcNAc(b1-3)Gal(b1-4)GlcNAc(b1-2)Man(a1-3)]Man(b1-4)GlcNAc(b1-4)[Fuc(a1-6)]GlcNAc
How it was run: as §1

[11] = target: Gal(b1-4)GlcNAc(b1-3)Gal(b1-4)GlcNAc(b1-3)Gal(b1-4)GlcNAc(b1-3)Gal(b1-4)GlcNAc(b1-3)Gal(b1-4)GlcNAc(b1-2)Man(a1-3)[Gal(b1-4)GlcNAc(b1-3)Gal(b1-4)GlcNAc(b1-3)Gal(b1-4)GlcNAc(b1-3)Gal(b1-4)GlcNAc(b1-3)Gal(b1-4)GlcNAc(b1-2)Man(a1-6)]Man(b1-4)GlcNAc(b1-4)GlcNAc
How it was run: as §1

[12] = target: Gal(b1-4)GlcNAc(b1-3)Gal(b1-4)GlcNAc(b1-3)Gal(b1-4)GlcNAc(b1-3)Gal(b1-4)GlcNAc(b1-3)Gal(b1-4)GlcNAc(b1-2)Man(a1-3)[Gal(b1-4)GlcNAc(b1-3)Gal(b1-4)GlcNAc(b1-3)Gal(b1-4)GlcNAc(b1-3)Gal(b1-4)GlcNAc(b1-3)Gal(b1-4)GlcNAc(b1-2)Man(a1-6)]Man(b1-4)GlcNAc(b1-4)[Fuc(a1-6)]GlcNAc
How it was run: as §1

[13] = target: Gal(b1-4)GlcNAc(b1-3)Gal(b1-4)GlcNAc(b1-3)Gal(b1-4)GlcNAc(b1-3)Gal(b1-4)GlcNAc(b1-3)Gal(b1-4)GlcNAc(b1-2)[Gal(b1-4)GlcNAc(b1-3)Gal(b1-4)GlcNAc(b1-3)Gal(b1-4)GlcNAc(b1-3)Gal(b1-4)GlcNAc(b1-3)Gal(b1-4)GlcNAc(b1-6)]Man(a1-6)[Gal(b1-4)GlcNAc(b1-3)Gal(b1-4)GlcNAc(b1-3)Gal(b1-4)GlcNAc(b1-3)Gal(b1-4)GlcNAc(b1-3)Gal(b1-4)GlcNAc(b1-2)Man(a1-3)]Man(b1-4)GlcNAc(b1-4)[Fuc(a1-6)]GlcNAc
How it was run: as §1

[14] = target: Gal(b1-4)GlcNAc(b1-3)Gal(b1-4)GlcNAc(b1-3)Gal(b1-4)GlcNAc(b1-3)Gal(b1-4)GlcNAc(b1-3)Gal(b1-4)GlcNAc(b1-3)Gal(b1-4)GlcNAc(b1-2)Man(a1-3)[Gal(b1-4)GlcNAc(b1-3)Gal(b1-4)GlcNAc(b1-3)Gal(b1-4)GlcNAc(b1-3)Gal(b1-4)GlcNAc(b1-3)Gal(b1-4)GlcNAc(b1-3)Gal(b1-4)GlcNAc(b1-2)Man(a1-6)]Man(b1-4)GlcNAc(b1-4)GlcNAc
How it was run: as §1

[15] = target: Gal(b1-4)GlcNAc(b1-3)Gal(b1-4)GlcNAc(b1-3)GalNAc
How it was run: as §1

[16] = target: Gal(b1-4)GlcNAc(b1-3)Gal(b1-4)GlcNAc(b1-3)[Gal(b1-4)GlcNAc(b1-3)Gal(b1-4)GlcNAc(b1-6)]GalNAc
How it was run: as §1

[17] = target: Gal(b1-4)GlcNAc(b1-3)Gal(b1-4)GlcNAc(b1-6)[Gal(b1-3)]GalNAc
How it was run: as §1

[18] = target: Gal(b1-4)GlcNAc(b1-3)Gal(b1-4)[Fuc(a1-3)]GlcNAc(b1-3)Gal(b1-4)[Fuc(a1-3)]GlcNAc
How it was run: as §1

[19] = target: Gal(b1-4)GlcNAc(b1-3)GalNAc
How it was run: as §1

[20] = target: Gal(b1-4)GlcNAc(b1-3)[Fuc(a1-3)GlcNAc(b1-6)]Gal(b1-4)Glc
How it was run: as §1

[21] = target: Gal(b1-4)GlcNAc(b1-3)[Gal(b1-4)GlcNAc(b1-6)]Gal(b1-4)GlcNAc
How it was run: as §1

[22] = target: Gal(b1-4)GlcNAc(b1-3)[GlcNAc(b1-6)]Gal(b1-4)GlcNAc
How it was run: as §1

B1: CrataBL (Crataeva tapia), C0HJA4 (protein)
chain: AILTGVPYYILPSTSRAGFSPDNLRKNTSQLSCPLDLITQLRFPRRIGVPVIFTPQNSSLKVVPLSHNLNIHTCSDLWFCPESKIWTVKSSLTHGGSVVTTGGTFRSLGSWFRIERHGDSYKLVHCPRGSTPCRDVGIETVGGGGRRYLAPRDRPLAVRFTRASG
[1]
  glycan array binding signal (z-score): -0.376
[2]
  glycan array binding signal (z-score): 0.546
[3]
  glycan array binding signal (z-score): -0.047
[4]
  glycan array binding signal (z-score): -0.406
[5]
  glycan array binding signal (z-score): 1.07
[6]
  glycan array binding signal (z-score): -0.307
[7]
  glycan array binding signal (z-score): 0.037
[8]
  glycan array binding signal (z-score): -0.288
[9]
  glycan array binding signal (z-score): -0.237
[10]
  glycan array binding signal (z-score): -0.183
[11]
  glycan array binding signal (z-score): -0.247
[12]
  glycan array binding signal (z-score): -0.276
[13]
  glycan array binding signal (z-score): -0.04
[14]
  glycan array binding signal (z-score): -0.135
[15]
  glycan array binding signal (z-score): 0.729
[16]
  glycan array binding signal (z-score): 1.35
[17]
  glycan array binding signal (z-score): 0.506
[18]
  glycan array binding signal (z-score): -0.446
[19]
  glycan array binding signal (z-score): -0.429
[20]
  glycan array binding signal (z-score): -0.194
[21]
  glycan array binding signal (z-score): -0.379
[22]
  glycan array binding signal (z-score): -0.512
